Test results from US20090196918A1, “Liposomal formulations of hydrophobic lactone drugs in the presence of metal ions” (University of Kentucky Research Foundation, priority 2008, published 2009).

Tested on: Non-small cell lung cancer (H460) xenografts
Assay: Efficacy of DB-67 in non-small cell lung cancer (H460) xenografts in mice
Conditions: nu/nu mice, protracted intravenous dosing of nonliposomal DB-67 (FIGS. 6 and 7)

## CC[C@@]1(O)C(=O)OCc2c1cc1n(c2=O)Cc2c-1nc1ccc(O)cc1c2[Si](C)(C)C(C)(C)C [DB-67, 7-t-butyldimethylsilyl-10-hydroxycamptothecin]
  treatment of non-small cell lung cancer (H460): tumor volume and survival: effective
